# The list shows a part of the results.
# B1: Gal 9 (Homo sapiens), O00182 (protein)
# chain: MAFSGSQAPYLSPAVPFSGTIQGGLQDGLQITVNGTVLSSSGTRFAVNFQTGFSGNDIAFHFNPRFEDGGYVVCNTRQNGSWGPEERKTHMPFQKGMPFDLCFLVQSSDFKVMVNGILFVQYFHRVPFHRVDTISVNGSVQLSYISFQNPRTVPVQPAFSTVPFSQPVCFPPRPRGRRQKPPGVWPANPAPITQTVIHTVQSAPGQMFSTPAIPPMMYPHPAYPMPFITTILGGLYPSKSILLSGTVLPSAQRFHINLCSGNHIAFHLNPRFDENAVVRNTQIDNSWGSEERSLPRKMPFVRGQSFSVWILCEAHCLKVAVDGQHLFEYYHRLRNLPTINRLEVGGDIQLTHVQT
# Tests used:
# Experiment in all cases: glycan array binding signal (z-score within array); higher = stronger binding
# Conditions in all cases: glycan notation: IUPAC condensed, linker removed
# [1] = biological target: Gal(b1-3)[Fuc(a1-4)]GlcNAc(b1-2)Man
# In short: (§1)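 Glycan array data came from 3228 arrays in the Consortium for Functional Glycomics database, and only arrays with an available protein sequence were kept. Glycan names were put into IUPAC-condensed notation, and columns mapping to the same glycan were averaged. The binding signal is a within-array Z-score, averaged across arrays of one protein sequence run at different concentrations or buffers and across linkers. A negative Z-score can be read as non-binding.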
# [2] = biological target: Gal(b1-3)[Fuc(a1-4)]GlcNAc(b1-2)Man(a1-3)[Gal(b1-3)[Fuc(a1-4)]GlcNAc(b1-2)Man(a1-6)]Man(b1-4)GlcNAc(b1-4)GlcNAc
# In short: as §1
# [3] = biological target: Gal(b1-3)[Fuc(a1-4)]GlcNAc(b1-2)Man(a1-3)[Gal(b1-3)[Fuc(a1-4)]GlcNAc(b1-2)Man(a1-6)]Man(b1-4)GlcNAc(b1-4)[Fuc(a1-6)]GlcNAc
# In short: as §1
# [4] = biological target: Gal(b1-3)[Fuc(a1-4)]GlcNAc(b1-3)Gal(b1-3)[Fuc(a1-4)]GlcNAc
# In short: as §1
# [5] = biological target: Gal(b1-3)[Fuc(a1-4)]GlcNAc(b1-3)Gal(b1-4)GlcNAc
# In short: as §1
# [6] = biological target: Gal(b1-3)[Fuc(a1-4)]GlcNAc(b1-3)Gal(b1-4)[Fuc(a1-3)]GlcNAc
# In short: as §1
# [7] = biological target: Gal(b1-3)[Fuc(a1-4)]GlcNAc(b1-6)GalNAc
# In short: as §1
# [8] = biological target: Gal(b1-3)[GlcNAc(b1-6)]GalNAc
# In short: as §1
# [9] = biological target: Gal(b1-3)[Neu5Ac(a2-6)]GalNAc
# In short: as §1
# [10] = biological target: Gal(b1-3)[Neu5Ac(a2-6)]GlcNAc(b1-4)Gal(b1-4)Glc
# In short: as §1
# [11] = biological target: Gal(b1-3)[Neu5Ac(a2-6)]GlcNAc(b1-6)Gal(b1-4)Glc
# In short: as §1
# [12] = biological target: Gal(b1-3)[Neu5Ac(b2-6)]GalNAc
# In short: as §1
# Gal(b1-4)Gal = biological target: Gal(b1-4)Gal
# In short: as §1
# [13] = biological target: Gal(b1-4)GalNAc(a1-3)[Fuc(a1-2)]Gal(b1-4)GlcNAc
# In short: as §1
# [14] = biological target: Gal(b1-4)GalNAc(b1-3)[Fuc(a1-2)]Gal(b1-4)GlcNAc
# In short: as §1
# Gal(b1-4)Glc = biological target: Gal(b1-4)Glc
# In short: as §1
# Gal(b1-4)Glc6S = biological target: Gal(b1-4)Glc6S
# In short: as §1
# Gal(b1-4)GlcNAc = biological target: Gal(b1-4)GlcNAc
# In short: as §1
# [15] = biological target: Gal(b1-4)GlcNAc(a1-6)Gal(b1-4)GlcNAc
# In short: as §1
# Gal(b1-4)GlcNAc(b1-2)Man = biological target: Gal(b1-4)GlcNAc(b1-2)Man
# In short: as §1
# [16] = biological target: Gal(b1-4)GlcNAc(b1-2)Man(a1-3)Man(b1-4)GlcNAc(b1-4)GlcNAc
# In short: as §1
# [17] = biological target: Gal(b1-4)GlcNAc(b1-2)Man(a1-3)[Gal(b1-4)GlcNAc(b1-2)Man(a1-6)]Man(b1-4)GlcNAc(b1-4)GlcNAc
# In short: as §1
# [18] = biological target: Gal(b1-4)GlcNAc(b1-2)Man(a1-3)[Gal(b1-4)GlcNAc(b1-2)Man(a1-6)]Man(b1-4)GlcNAc(b1-4)[Fuc(a1-6)]GlcNAc
# In short: as §1
# [19] = biological target: Gal(b1-4)GlcNAc(b1-2)Man(a1-3)[Gal(b1-4)GlcNAc(b1-2)Man(a1-6)][Gal(b1-4)GlcNAc(b1-4)]Man(b1-4)GlcNAc(b1-4)[Fuc(a1-6)]GlcNAc
# In short: as §1
# [20] = biological target: Gal(b1-4)GlcNAc(b1-2)Man(a1-3)[Gal(b1-4)GlcNAc(b1-2)Man(a1-6)][GlcNAc(b1-4)]Man(b1-4)GlcNAc(b1-4)[Fuc(a1-6)]GlcNAc
# In short: as §1
# [21] = biological target: Gal(b1-4)GlcNAc(b1-2)Man(a1-3)[Gal(b1-4)GlcNAc(b1-2)][GlcNAc(b1-4)]Man(b1-4)GlcNAc(b1-4)GlcNAc
# In short: as §1
# [22] = biological target: Gal(b1-4)GlcNAc(b1-2)Man(a1-3)[GlcNAc(b1-2)Man(a1-6)]Man(b1-4)GlcNAc(b1-4)GlcNAc
# In short: as §1
# [23] = biological target: Gal(b1-4)GlcNAc(b1-2)Man(a1-3)[GlcNAc(b1-4)][Gal(b1-4)GlcNAc(b1-2)Man(a1-6)]Man(b1-4)GlcNAc(b1-4)GlcNAc
# In short: as §1
# [24] = biological target: Gal(b1-4)GlcNAc(b1-2)Man(a1-3)[Man(a1-6)]Man(b1-4)GlcNAc(b1-4)GlcNAc
# In short: as §1
# [25] = biological target: Gal(b1-4)GlcNAc(b1-2)Man(a1-6)Man(b1-4)GlcNAc(b1-4)GlcNAc
# In short: as §1
# [26] = biological target: Gal(b1-4)GlcNAc(b1-2)Man(a1-6)[GlcNAc(b1-2)Man(a1-3)]Man(b1-4)GlcNAc(b1-4)GlcNAc
# In short: as §1
# [27] = biological target: Gal(b1-4)GlcNAc(b1-2)Man(a1-6)[Man(a1-3)]Man(b1-4)GlcNAc(b1-4)GlcNAc
# In short: as §1
# [28] = biological target: Gal(b1-4)GlcNAc(b1-2)[Gal(b1-4)GlcNAc(b1-4)]Man(a1-3)[Gal(b1-4)GlcNAc(b1-2)Man(a1-6)]Man(b1-4)GlcNAc(b1-4)GlcNAc
# In short: as §1
# [29] = biological target: Gal(b1-4)GlcNAc(b1-2)[Gal(b1-4)GlcNAc(b1-4)]Man(a1-3)[Gal(b1-4)GlcNAc(b1-2)[Gal(b1-4)GlcNAc(b1-6)]Man(a1-6)]Man(b1-4)GlcNAc(b1-4)GlcNAc
# In short: as §1
# [30] = biological target: Gal(b1-4)GlcNAc(b1-2)[Gal(b1-4)GlcNAc(b1-4)]Man(a1-3)[GlcNAc(b1-4)][Gal(b1-4)GlcNAc(b1-2)Man(a1-6)]Man(b1-4)GlcNAc(b1-4)GlcNAc
# In short: as §1
# [31] = biological target: Gal(b1-4)GlcNAc(b1-2)[Gal(b1-4)GlcNAc(b1-4)]Man(a1-3)[GlcNAc(b1-4)][Gal(b1-4)GlcNAc(b1-2)[Gal(b1-4)GlcNAc(b1-6)]Man(a1-6)]Man(b1-4)GlcNAc(b1-4)GlcNAc
# In short: as §1
# [32] = biological target: Gal(b1-4)GlcNAc(b1-2)[Gal(b1-4)GlcNAc(b1-6)]Man(a1-6)[Gal(b1-4)GlcNAc(b1-2)Man(a1-3)]Man(b1-4)GlcNAc(b1-4)GlcNAc
# In short: as §1
# [33] = biological target: Gal(b1-4)GlcNAc(b1-2)[Gal(b1-4)GlcNAc(b1-6)]Man(a1-6)[Gal(b1-4)GlcNAc(b1-2)Man(a1-3)]Man(b1-4)GlcNAc(b1-4)[Fuc(a1-6)]GlcNAc
# In short: as §1
binder,measurement,setting,value
B1,glycan array binding signal (z-score),[1],-0.256
same,glycan array binding signal (z-score),[2],0.063
same,glycan array binding signal (z-score),[3],-0.204
same,glycan array binding signal (z-score),[4],-0.31
same,glycan array binding signal (z-score),[5],0.019
same,glycan array binding signal (z-score),[6],-0.309
same,glycan array binding signal (z-score),[7],-0.282
same,glycan array binding signal (z-score),[8],-0.326
same,glycan array binding signal (z-score),[9],-0.315
same,glycan array binding signal (z-score),[10],-0.246
same,glycan array binding signal (z-score),[11],-0.329
same,glycan array binding signal (z-score),[12],-0.32
same,glycan array binding signal (z-score),Gal(b1-4)Gal,-0.315
same,glycan array binding signal (z-score),[13],0.397
same,glycan array binding signal (z-score),[14],-0.33
same,glycan array binding signal (z-score),Gal(b1-4)Glc,-0.325
same,glycan array binding signal (z-score),Gal(b1-4)Glc6S,-0.313
same,glycan array binding signal (z-score),Gal(b1-4)GlcNAc,-0.282
same,glycan array binding signal (z-score),[15],0.387
same,glycan array binding signal (z-score),Gal(b1-4)GlcNAc(b1-2)Man,-0.235
same,glycan array binding signal (z-score),[16],0.635
same,glycan array binding signal (z-score),[17],2.94
same,glycan array binding signal (z-score),[18],0.756
same,glycan array binding signal (z-score),[19],-0.269
same,glycan array binding signal (z-score),[20],-0.289
same,glycan array binding signal (z-score),[21],3.85
same,glycan array binding signal (z-score),[22],0.225
same,glycan array binding signal (z-score),[23],-0.277
same,glycan array binding signal (z-score),[24],0.484
same,glycan array binding signal (z-score),[25],0.03
same,glycan array binding signal (z-score),[26],-0.116
same,glycan array binding signal (z-score),[27],0.09
same,glycan array binding signal (z-score),[28],0.957
same,glycan array binding signal (z-score),[29],4.71
same,glycan array binding signal (z-score),[30],3.62
same,glycan array binding signal (z-score),[31],-0.3
same,glycan array binding signal (z-score),[32],-0.249
same,glycan array binding signal (z-score),[33],-0.309
